Experimental data from paper PMC4336329 (PLoS ONE, 2015).
Among all 310,000 compounds or so, about 14,000 (4.5%) showed an effect of 50% or more. Effects have a minus sign here. The list shows a part of the results.

Molecular target: human ether-à-go-go-related gene (hERG) potassium channel (human, UniProt Q12809)
Experiment: primary screen, population patch clamp on CHO cells stably expressing hERG
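Also: peak tail current of the secondary pulse compared with the same well before compound.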

human ether-à-go-go-related gene (hERG) potassium channel, sequence (Q12809 whole entry, looked up): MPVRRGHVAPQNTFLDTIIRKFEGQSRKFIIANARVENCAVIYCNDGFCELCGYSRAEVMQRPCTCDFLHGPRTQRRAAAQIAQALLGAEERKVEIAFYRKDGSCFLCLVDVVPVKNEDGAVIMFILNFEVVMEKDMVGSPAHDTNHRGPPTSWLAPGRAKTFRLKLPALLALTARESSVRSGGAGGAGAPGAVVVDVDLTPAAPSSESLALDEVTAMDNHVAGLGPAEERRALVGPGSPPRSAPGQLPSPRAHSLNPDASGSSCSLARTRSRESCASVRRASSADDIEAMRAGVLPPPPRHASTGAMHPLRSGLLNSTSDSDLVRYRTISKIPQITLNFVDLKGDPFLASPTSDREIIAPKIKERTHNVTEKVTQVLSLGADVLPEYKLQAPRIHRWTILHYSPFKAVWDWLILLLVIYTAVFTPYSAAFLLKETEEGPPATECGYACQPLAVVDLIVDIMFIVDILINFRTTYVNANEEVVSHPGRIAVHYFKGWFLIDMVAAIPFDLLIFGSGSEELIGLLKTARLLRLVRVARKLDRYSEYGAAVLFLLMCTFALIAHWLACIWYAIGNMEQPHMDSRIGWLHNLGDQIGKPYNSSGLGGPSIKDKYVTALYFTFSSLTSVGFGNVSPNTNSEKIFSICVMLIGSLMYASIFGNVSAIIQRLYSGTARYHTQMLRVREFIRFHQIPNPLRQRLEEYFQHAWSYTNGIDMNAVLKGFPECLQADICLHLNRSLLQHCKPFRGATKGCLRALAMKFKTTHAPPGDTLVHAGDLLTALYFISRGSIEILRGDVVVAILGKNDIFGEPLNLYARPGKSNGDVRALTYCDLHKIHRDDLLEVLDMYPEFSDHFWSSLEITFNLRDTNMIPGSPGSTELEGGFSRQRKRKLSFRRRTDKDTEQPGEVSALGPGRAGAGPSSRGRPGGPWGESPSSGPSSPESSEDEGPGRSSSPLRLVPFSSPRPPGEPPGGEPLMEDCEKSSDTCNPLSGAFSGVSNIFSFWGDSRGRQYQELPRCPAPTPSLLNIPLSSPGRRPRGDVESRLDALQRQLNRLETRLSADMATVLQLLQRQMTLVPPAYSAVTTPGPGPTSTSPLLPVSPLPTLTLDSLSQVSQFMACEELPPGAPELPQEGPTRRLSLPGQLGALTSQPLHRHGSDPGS

Compound | hERG current change (%, negative = inhibition) at 10uM [%]
CCOc1ccc(OC(=O)c2cccnc2)cc1 | 25.1
CCCCOc1c(Cl)cc(C(=O)N(C)CC(=O)Nc2ccc(N3CCOCC3)cc2)cc1OCC | 9.24
N#CC1=C(C=Nc2ccccc2O)CCC1 | 19
CC(C)N(C(=O)c1ccc(C(=O)Nc2ccc([N+](=O)[O-])cc2)cc1)C(C)C | 15.7
CCn1cc(C(=O)O)c(=O)c2cnc(N3CCN(C(=S)NC(=O)c4ccc(F)c(F)c4)CC3)nc21 | 17.9
COc1ccccc1N1CCN(c2ncnc3c2oc2ccccc23)CC1 | 6.73
CC1=CC(C2CC(=O)N(c3ccccc3C)C2=O)CC2C(=O)N(c3ccccc3C)C(=O)C12 (stereo not drawn) | -3.52
CC(C)NC(=O)CSc1ccccc1C(=O)N1CCN(S(=O)(=O)/C=C/c2ccccc2)CC1 | -27.9
COc1cc(C(=O)OCC(=O)NCCCc2ccccc2)ccc1OCC(C)C | 13.4
CC(=O)Oc1ccc([C@@H]2COc3c(ccc4c3C=CC(C)(C)O4)C2)c(OC(C)=O)c1 | 14.7
COc1cc(C(=O)OCC(=O)NC2CCCC2)cc(OC)c1OC | 16.7
CC(OC(=O)Cn1[nH]c(=O)c2ccccc2c1=O)C(=O)NC1(C#N)CCCCC1 (stereo not drawn) | 4.63
COc1ccccc1NC(=O)C1=C(C)Nc2nc(-c3ccccc3)nn2C1c1ccccn1 (stereo not drawn) | -21.3
Cc1noc(C)c1CSCc1ccc(Cl)cc1 | 31.2
Cc1[nH]nc2c1-c1nc3ccccc3nc1C(C)(C)C2 | 8.32
O=C(COC(=O)c1ccc2ncsc2c1)Nc1ncc(Cl)cc1Cl | -1.12
CCNC(=O)/C(C#N)=C/c1c(N(Cc2ccccc2)Cc2ccccc2)nc2ccccn2c1=O | -35.9
NC(=O)N/N=C/c1cccc(C(F)(F)F)c1 | 7.26
O=C(Oc1ccc2ccccc2c1Br)N1CCCCCC1 | 1.59
CCc1ccc(/C=C\C(=O)N2CCCC2)cc1 | -11.8
COc1ccccc1NC(=O)Cc1csc(N)n1 | 8.31
Cc1cccc(CS(=O)(=O)c2cn(CC(=O)N3CCOCC3)c3ccccc23)c1 | -1.17

Compound | hERG current change (%, negative = inhibition) at 10uM [%]
O=C1c2c(O)cccc2Cc2cccc(O)c21 | 5.15
O=C(CCCn1c(=O)oc2ccccc21)N1CCN(c2ccccn2)CC1 | -47.6
Cc1nc2c(n1O)CCC/C2=N\O | 7.32
CN(/N=C/c1ccc([N+](=O)[O-])o1)c1ccccc1 | 2.91
CCOC(=O)c1ccc[n+](CC(=O)c2ccc(NC(=O)c3ccccc3)cc2)c1.[Br-] | -3.73
COc1ccc(NC(=O)c2cc3c(CO)cnc(C)c3oc2=Nc2cccc(F)c2)c(OC)c1 | 18.7
CCSc1nnc(N2C(=O)c3ccc(C(=O)c4ccc(C(=O)O)cc4)cc3C2=O)s1 | 3.84
O=C(COC(=O)CNS(=O)(=O)c1c(Cl)cccc1Cl)Nc1cccnc1Cl | 1.5
CC1CCc2[nH]c3ccc(C(=O)Nc4ccc(C(=O)N(C)C)cc4)cc3c2C1 (stereo not drawn) | 28.9
Cc1cc(=O)oc2cc(OC(C)C(=O)NC3CCN(Cc4ccccc4)CC3)ccc12 (stereo not drawn) | -79.2
CCOC(=O)c1c(CN(CC)CC)oc2ccc(OC)cc12 | -61.9
CC1CCN(CCCCOc2ccc(C(C)(C)C)cc2)CC1.O=C(O)C(=O)O | -59.6
COc1ccc(C(CC(=O)N2CCCC2)c2ccc(F)cc2)cc1 (stereo not drawn) | -71.5
O=C(CCc1nnc(-c2ccccc2)o1)NCc1c(F)cccc1F | 17.8
COc1ccc(NC(=O)CSc2c3c(nc4ccccc24)CCCC3)c(OC)c1 | -47.5
CC1CCN(S(=O)(=O)c2ccc3c(c2)N(CC(=O)NCc2cccnc2)C(=O)CS3)CC1 | -53.3
CCOC(=O)CC1C(=O)NCCN1C(=O)c1c(F)cccc1F (stereo not drawn) | 16.1
Cc1ccc(NS(=O)(=O)c2ccc(C(=O)OCC(=O)NCC3CCCO3)cc2)cc1 (stereo not drawn) | 2.06
COc1ccc(NC(=O)c2cc3n(n2)C(C(F)(F)F)CC(c2ccco2)N3)cc1 (stereo not drawn) | 7.87
Cc1nc2scc(C)n2c(=O)c1S(=O)(=O)NCc1ccccc1 | 11.8
COCCNc1c2c(nc3ccccc13)CCC2.Cl | -58.5
CN(CCCNC(=O)c1ccc(N2CCCC2=O)cc1)c1ccccc1 | -6.96

Compound | hERG current change (%, negative = inhibition) at 10uM [%]
O=C(Nc1nc2ccccc2n1CCN1CCOCC1)c1cn(-c2ccccc2)nc1-c1ccccc1 | -0.966
CCOC(=O)C(=O)c1csc(NC(=O)CCSc2ccc(C)cc2)n1 | 11.4
Cc1ccc2cc(/C=N/NC(=O)CN3CCCCC3)c(Cl)nc2c1 | -44.1
COc1ccc(CNCc2ccc([N+](=O)[O-])cc2)cc1OC.O=C(O)C(=O)O | -38.7
COc1ccc(CCNC(=O)c2cc(-c3ccc4c(c3)OCO4)on2)cc1OC | -4.11
N=c1c2c3c(sc2ncn1CCN1CCOCC1)CCCCC3 | -42.9
Cc1cccc(OC(C)C(=O)N(Cc2cccs2)C2CCS(=O)(=O)C2)c1C (stereo not drawn) | -14.8
O=C(C1CCCC1)N1CCN(S(=O)(=O)c2ccc(F)cc2)CC1 | 15.9
O/N=C/c1nc2cc(Cl)ccc2o1 | 11
CC(C)Oc1ccc(/C(O)=C2/C(=O)C(=O)N(CCN3CCNCC3)C2c2cccc([N+](=O)[O-])c2)cc1 (stereo not drawn) | 21.1
Cc1ccc(NC(=O)CSc2n[nH]c(=O)n2C2CC2)cc1S(=O)(=O)N1CCOCC1 | 14.2
CC1CC(C)CN(C(=O)C2CCC(CNS(=O)(=O)c3ccccc3)CC2)C1 (stereo not drawn) | -14
CC(C)N(CCNS(=O)(=O)c1ccc(Cl)cc1)C(C)C.Cl | -28.1
O=C(CSc1nnc(COc2ccccc2)o1)NC1CC2CCC1C2 (stereo not drawn) | 17.5
O=C(CSc1ccc(Cl)cc1)Nc1ccc(N2CCN(C(=O)c3ccco3)CC2)cc1 | -16.1
CCOc1c(Cl)cc(C(=O)Nc2ccccc2C(=O)O)cc1Cl | 80.5
Cc1ccc(NC(=O)CN(c2ccc(Cl)cc2)S(=O)(=O)c2cc([N+](=O)[O-])ccc2Cl)cc1 | 5.17
COc1ccc(S(=O)(=O)N(CC(=O)NC2CCCC2)c2ccccc2OC)cc1 | -4.13
COc1cc(/C=C2\N=C(C)OC2=O)cc(Cl)c1OC(C)=O | 14.9
Cc1ccc(C)c(-n2cc[nH]c2=S)c1 | 18.4
CCc1ccc2c(c1)/C(=N/N(C)C(=S)NC)C(=O)N2 | -13.4
COc1ccc(/C=N/NC(=O)c2nn(-c3ccccc3)c(=O)c3c(N)scc23)cc1 | -3.55

Compound | hERG current change (%, negative = inhibition) at 10uM [%]
CCOc1ccccc1CNC(=O)c1c([N+](=O)[O-])c(C)nn1C | -10.9
COc1ccccc1NC(=O)CNC(=O)Cn1c(C)cc2ccccc2c1=O | 20.5
CCOC(=O)CCC(=O)N1CCOCCOCCN(C(=O)CCC(=O)OCC)CCOCC1 | -7.63
Cc1nccn1CCCNC(=O)C1CCC(=O)N(Cc2ccccc2F)C1 (stereo not drawn) | -1.67
CCOC(=O)Cn1c(=O)c2c(nc(N3CCCCC3)n2Cc2ccccc2)n(C)c1=O | -40.4
COc1cc(C=O)ccc1OCC(=O)Nc1ccccc1N1CCOCC1 | -1.22
COc1ccc(/C(N)=N/OC(=O)CSc2ccccc2)cc1 | -2.41
COC(=O)c1sc(=S)n(-c2ccccc2)c1N | 12.3
COc1ccc(Cc2nnc(NC(=O)c3cccs3)s2)cc1OC | 9.26
c1ccc(N2CCN(CC3CCCCC3)CC2)cc1 | 9.61
O=C(NCc1ccccc1)C(c1ccccc1)N(C(=O)c1csnn1)c1ccc(F)cc1 (stereo not drawn) | 10.7
COc1cccc(CN2CCC(C(=O)N3CCN(c4ccccc4F)CC3)CC2)c1 | -53
Cc1nnc(SCc2ccc(CC(=O)O)cc2)o1 | 12.1
CC(=O)N1CCN(C(=O)C2(NC(=O)Nc3cccc(F)c3)CCCCC2)CC1 | 18.3
CSCCC(NC(=O)c1ccccc1Cl)C(=O)NNC(=O)c1ccncc1 (stereo not drawn) | -10.5
CC(C)c1ccc(NC2CCCN(C(=O)c3cscn3)C2)cc1 (stereo not drawn) | 3.84
COc1ccc(-c2csc(N3CCC(C(N)=O)(N4CCCCC4)CC3)n2)cc1 | -1.82
N=c1c(C(=O)NCC2CCCO2)cc2c(=O)n3ccccc3nc2n1Cc1cccnc1 (stereo not drawn) | -72.9
COC(OC)C1(C)C(C#N)=C(N)Oc2c1c(=O)oc1ccccc21 (stereo not drawn) | 8.74
Fc1cc(Br)ccc1NC(=S)NCCc1ccccc1 | -1.43
O=C(CNS(=O)(=O)c1cccc(C(F)(F)F)c1)Nc1ccccc1F | -5.3
